# Source: publication PMC12589908
# The chains behind the UniProt entries cited, without tags or fusion partners. Where a name states a change or a piece, a line headed by the entry shows the natural chain unless it says otherwise. A line that says so, or that is headed by a name, gives the form on record, which may keep a tag or linker.
# UniProt P02795: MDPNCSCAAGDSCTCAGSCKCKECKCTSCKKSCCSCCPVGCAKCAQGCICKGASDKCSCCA
# PKL (P30613-2, form named): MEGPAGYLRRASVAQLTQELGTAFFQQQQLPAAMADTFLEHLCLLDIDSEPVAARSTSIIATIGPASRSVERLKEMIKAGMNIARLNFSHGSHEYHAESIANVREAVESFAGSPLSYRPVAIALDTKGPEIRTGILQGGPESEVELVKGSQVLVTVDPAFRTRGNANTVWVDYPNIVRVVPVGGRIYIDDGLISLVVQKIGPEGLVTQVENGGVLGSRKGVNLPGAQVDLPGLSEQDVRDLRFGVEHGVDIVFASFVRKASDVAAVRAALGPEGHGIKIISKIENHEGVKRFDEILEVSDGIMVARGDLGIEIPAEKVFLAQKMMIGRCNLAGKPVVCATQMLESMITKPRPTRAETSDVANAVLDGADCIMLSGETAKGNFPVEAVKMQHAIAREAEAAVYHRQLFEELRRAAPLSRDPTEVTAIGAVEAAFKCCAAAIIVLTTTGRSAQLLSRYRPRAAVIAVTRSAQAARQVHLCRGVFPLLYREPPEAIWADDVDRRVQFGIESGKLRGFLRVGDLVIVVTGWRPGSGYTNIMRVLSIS
# UniProt P14618: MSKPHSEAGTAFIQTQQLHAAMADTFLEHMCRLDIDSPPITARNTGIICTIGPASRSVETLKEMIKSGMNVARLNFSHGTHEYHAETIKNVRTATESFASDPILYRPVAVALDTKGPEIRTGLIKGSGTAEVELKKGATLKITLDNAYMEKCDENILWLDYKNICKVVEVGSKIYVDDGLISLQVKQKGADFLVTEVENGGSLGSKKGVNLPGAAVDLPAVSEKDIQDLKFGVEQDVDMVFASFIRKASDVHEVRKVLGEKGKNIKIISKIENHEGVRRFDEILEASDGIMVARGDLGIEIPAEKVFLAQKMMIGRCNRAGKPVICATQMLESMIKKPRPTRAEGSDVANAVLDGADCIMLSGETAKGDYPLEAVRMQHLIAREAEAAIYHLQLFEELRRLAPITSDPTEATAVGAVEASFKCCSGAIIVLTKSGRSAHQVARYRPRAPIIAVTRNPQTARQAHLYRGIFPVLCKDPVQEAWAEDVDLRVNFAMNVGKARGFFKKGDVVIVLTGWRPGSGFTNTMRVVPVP
# PKM1 (P14618-2, form named): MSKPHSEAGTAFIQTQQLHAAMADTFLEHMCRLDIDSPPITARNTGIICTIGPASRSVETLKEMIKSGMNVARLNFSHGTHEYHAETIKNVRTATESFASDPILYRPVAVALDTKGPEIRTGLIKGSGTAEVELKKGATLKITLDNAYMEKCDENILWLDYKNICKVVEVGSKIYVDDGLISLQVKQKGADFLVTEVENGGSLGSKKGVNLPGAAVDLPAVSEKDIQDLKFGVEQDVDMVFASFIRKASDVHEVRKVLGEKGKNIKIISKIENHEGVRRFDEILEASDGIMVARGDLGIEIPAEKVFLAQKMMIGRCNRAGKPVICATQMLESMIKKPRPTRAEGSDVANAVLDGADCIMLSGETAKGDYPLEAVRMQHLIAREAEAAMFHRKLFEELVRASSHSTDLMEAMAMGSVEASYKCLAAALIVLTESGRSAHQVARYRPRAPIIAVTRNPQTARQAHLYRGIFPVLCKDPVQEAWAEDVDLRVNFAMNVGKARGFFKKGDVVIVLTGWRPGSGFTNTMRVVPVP
# No constants are given. Whether binding was seen depends on the method and setting. Binding seen in cells or lysates may run through a third protein. Some entries that bind do so weakly or less than the wild type.
# What was measured:
# [1] = molecular target: HA-MT2A (metallothionein-2A), stably expressed in T47D (UniProt P02795); experiment: co-IP; T47D cells stably expressing HA-MT2; hypoxia (1% O2 for 24 h) or normoxia; EBC lysis buffer, washes with NETN buffer, immunoblot
# [2] = molecular target: HA-MT2A (metallothionein-2A) (UniProt P02795); experiment: co-IP; 293T cells transiently transfected with HA-MT2A (or point mutants) and PKM2-Flag (or point mutants); hypoxia (1% O2 for 24 h) or normoxia; EBC lysis buffer, washes with NETN buffer, immunoblot
Substance,binding [1],binding [2]
PKL (from UniProt P30613-2 1-543) (enzyme),no binding,
PKM1 (from UniProt P14618-2 1-531) (enzyme),no binding,
PKM2-Flag (pyruvate kinase M2) (from UniProt P14618 1-531) (enzyme),,binds

# Continued, values first:
binding [1],binding [2],Substance
,binds,PKM2-K422R-FLAG (from UniProt P14618 1-531) (enzyme)
binds,,Pyruvate kinase M2 (PKM2) of T47D cells (from UniProt P14618 1-531) (enzyme)
